From the supplement of paper PMC4604168 (melanoma cell lines)
The other results are listed elsewhere or left out. Repeats are few or missing, and single values can be far off.

Experiments:
Experiment in all cases: cell count relative to DMSO control; melanoma cells; higher = more viable cells
Conditions in all cases: library dose: standard library concentration; 72 h
SkMel28 = test system: SkMel28
SkMel2 = test system: SkMel2
SkMel30 = test system: SkMel30
SkMel5 = test system: SkMel5
UACC257 = test system: UACC257
UACC62 = test system: UACC62
WM115 = test system: WM115
WM1716 = test system: WM1716
WM3526 = test system: WM3526
WM1745 = test system: WM1745
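Note: cells treated in 1,536-well plates, then fixed and DAPI-stained, with nuclei counted from automated high-throughput microscope images.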

| Compound | cell count (SkMel28) [%] | cell count (SkMel2) [%] | cell count (SkMel30) [%] | cell count (SkMel5) [%] | cell count (UACC257) [%] | cell count (UACC62) [%] | cell count (WM115) [%] | cell count (WM1716) [%] | cell count (WM3526) [%] | cell count (WM1745) [%] |
| --- | --- | --- | --- | --- | --- | --- | --- | --- | --- | --- |
| CCN(CC)CCNC(=O)c1c(C)[nH]c(/C=C2\C(=O)Nc3ccc(F)cc32)c1C [sunitinib] + COc1cc2ncnc(Nc3ccc(Oc4ccccc4)cc3)c2cc1OC [SrcI1] (first compound 2 µM, partner dose 10 µM) | 38.8 | 68.6 | 57.1 | 58.2 | 91.7 | 36 | 39.7 | 67.3 | 49.8 | – |
| COc1cc([C@@H]2c3cc4c(cc3[C@@H](O[C@@H]3O[C@@H]5CO[C@@H](C)O[C@H]5[C@H](O)[C@H]3O)[C@H]3COC(=O)[C@H]23)OCO4)cc(OC)c1O [etoposide] + COc1cc2ncnc(Nc3ccc(Oc4ccccc4)cc3)c2cc1OC [SrcI1] (first compound 0.1 µM, partner dose 10 µM) | 88.9 | 54.8 | 88.5 | 66.7 | 79.5 | 57.3 | 71.1 | 51.9 | 52.9 | – |
| CCN(CC)CCNC(=O)c1c(C)[nH]c(/C=C2\C(=O)Nc3ccc(F)cc32)c1C [sunitinib] + Oc1nc(-c2ccc(C(F)(F)F)cc2)nc2c1CSCC2 [XAV939] (first compound 2 µM, partner dose 10 µM) | 50.3 | 75.7 | 72.5 | 58.7 | 88.2 | 56.5 | 62.5 | 89 | 56 | – |
| Cn1cnc2c(F)c(Nc3ccc(Br)cc3Cl)c(C(=O)NOCCO)cc21 [selumetinib] + O=S(=O)(c1ccccc1)N(CC(F)(F)F)c1ccc(C(O)(C(F)(F)F)C(F)(F)F)cc1 [T0901317] (first compound 0.075 µM, partner dose 7 µM) | 51.7 | 57.8 | 69.5 | 73.2 | 106 | 61.8 | 89.2 | 73.9 | 55.8 | – |
| C[C@]1(O)C[C@@H](c2nc(-c3ccc4ccc(-c5ccccc5)nc4c3)c3c(N)nccn32)C1 + O=S(=O)(c1ccccc1)N(CC(F)(F)F)c1ccc(C(O)(C(F)(F)F)C(F)(F)F)cc1 [T0901317] (first compound 2 µM, partner dose 7 µM) | 96 | 82.9 | 103 | 63.2 | 72.3 | 81.1 | 98.2 | 94.5 | 76.5 | – |
| COc1cc([C@@H]2c3cc4c(cc3[C@@H](O[C@@H]3O[C@@H]5CO[C@@H](C)O[C@H]5[C@H](O)[C@H]3O)[C@H]3COC(=O)[C@H]23)OCO4)cc(OC)c1O [etoposide] + O=S(=O)(c1ccccc1)N(CC(F)(F)F)c1ccc(C(O)(C(F)(F)F)C(F)(F)F)cc1 [T0901317] (first compound 0.1 µM, partner dose 7 µM) | 74.7 | 74.1 | 76.4 | 59.2 | 88.9 | 59.8 | 62.6 | 70.6 | 86.4 | – |
| COc1cc([C@@H]2c3cc4c(cc3[C@@H](O[C@@H]3O[C@@H]5CO[C@@H](C)O[C@H]5[C@H](O)[C@H]3O)[C@H]3COC(=O)[C@H]23)OCO4)cc(OC)c1O [etoposide] + O=c1cc(-c2cccc3c2Sc2ccccc2S3)oc(N2CCOCC2)c1 [KU55933] (first compound 0.1 µM, partner dose 5 µM) | 85.4 | – | 95.7 | 72.2 | 86.9 | 77.5 | 87.4 | 72.6 | 102 | – |
| Cn1cnc2c(F)c(Nc3ccc(Br)cc3Cl)c(C(=O)NOCCO)cc21 [selumetinib] + CC(C)CCN1c2nc(Nc3cc(F)c(O)c(F)c3)ncc2N(C)C(=O)C1C [BID1870] (first compound 0.075 µM, partner dose 1 µM) | 44.5 | 41.9 | 51.5 | 58.6 | 73.5 | 59.6 | 83.7 | 76.3 | 59.5 | – |
| COc1cc([C@@H]2c3cc4c(cc3[C@@H](O[C@@H]3O[C@@H]5CO[C@@H](C)O[C@H]5[C@H](O)[C@H]3O)[C@H]3COC(=O)[C@H]23)OCO4)cc(OC)c1O [etoposide] + COc1ccc(-c2ccc3c(N4CCOCC4)nc(N4C[C@@H](C)O[C@@H](C)C4)nc3n2)cc1CO [KU0063794] (first compound 0.1 µM, partner dose 0.1 µM) | 64.5 | 62.5 | 76.7 | 64.3 | 80.9 | 92.2 | 81.8 | 54.9 | 94.4 | – |
| Cn1cnc2c(F)c(Nc3ccc(Br)cc3Cl)c(C(=O)NOCCO)cc21 [selumetinib] + COC(=O)c1sccc1S(=O)(=O)Nc1ccc(Nc2ccccc2)cc1OC [GSK0660] (first compound 0.075 µM, partner dose 5 µM) | 60.9 | 65.1 | 61.9 | 67.8 | 100 | 67.2 | 66.8 | 75.8 | 49.1 | – |
| Cn1cnc2c(F)c(Nc3ccc(Br)cc3Cl)c(C(=O)NOCCO)cc21 [selumetinib] + Oc1nc(-c2ccc(C(F)(F)F)cc2)nc2c1CSCC2 [XAV939] (first compound 0.075 µM, partner dose 10 µM) | 49.3 | 55.4 | 61.9 | 72.8 | 71.8 | 60.2 | 68.6 | 61.7 | 56.5 | – |
| COc1cc([C@@H]2c3cc4c(cc3[C@@H](O[C@@H]3O[C@@H]5CO[C@@H](C)O[C@H]5[C@H](O)[C@H]3O)[C@H]3COC(=O)[C@H]23)OCO4)cc(OC)c1O [etoposide] + Cc1cc([N+](=O)[O-])ccc1NS(=O)(=O)c1cc(Cl)ccc1Cl [FH535] (first compound 0.1 µM, partner dose 5 µM) | 77.3 | 81.9 | 95.4 | 86.3 | 83.1 | 82.1 | 86.7 | 57.9 | 82.8 | – |
| Cn1cnc2c(F)c(Nc3ccc(Br)cc3Cl)c(C(=O)NOCCO)cc21 [selumetinib] + OCCn1cc(-c2cnc3nnn(Cc4ccc5ncccc5c4)c3n2)cn1 [PF04217903] (first compound 0.075 µM, partner dose 5 µM) | 49.5 | – | 65.7 | 84.3 | 87.1 | 62.3 | 65.7 | 65.6 | 55.7 | 85.8 |
| Cn1cnc2c(F)c(Nc3ccc(Br)cc3Cl)c(C(=O)NOCCO)cc21 [selumetinib] + COc1ccc(-c2ccc3c(N4CCOCC4)nc(N4C[C@@H](C)O[C@@H](C)C4)nc3n2)cc1CO [KU0063794] (first compound 0.075 µM, partner dose 0.1 µM) | 32.6 | 66.1 | 47.1 | 42.3 | 75.2 | 41 | 51.8 | 74.9 | 44.3 | – |
| CCN(CC)CCNC(=O)c1c(C)[nH]c(/C=C2\C(=O)Nc3ccc(F)cc32)c1C [sunitinib] + COc1cc(N2CCC(N3CCN(C)CC3)CC2)ccc1Nc1ncc(Cl)c(Nc2ccccc2S(=O)(=O)C(C)C)n1 [NVP-TAE684] (first compound 2 µM, partner dose 0.4 µM) | 56.3 | 32.7 | 70.3 | 44.8 | 93.1 | 60.7 | 54.5 | 75.8 | 48.9 | – |
| Cn1cnc2c(F)c(Nc3ccc(Br)cc3Cl)c(C(=O)NOCCO)cc21 [selumetinib] + N#Cc1c(O)c2c(-c3ccc(-c4ccccc4O)cc3)csc2[nH]c1=O [A769662] (first compound 0.075 µM, partner dose 10 µM) | 57.8 | 45.7 | 58.1 | 73.6 | 88.7 | 73.4 | 84.9 | 88.7 | 74.8 | – |
| COc1cc([C@@H]2c3cc4c(cc3[C@@H](O[C@@H]3O[C@@H]5CO[C@@H](C)O[C@H]5[C@H](O)[C@H]3O)[C@H]3COC(=O)[C@H]23)OCO4)cc(OC)c1O [etoposide] + O=C1NC(=O)/C(=C/c2ccc(-c3ccc(F)cc3O)o2)S1 [AS252424] (first compound 0.1 µM, partner dose 5 µM) | 63.2 | 63.2 | – | 93.5 | 97.6 | 74.7 | 73.2 | 76.2 | 86.8 | – |
| CCN(CC)CCNC(=O)c1c(C)[nH]c(/C=C2\C(=O)Nc3ccc(F)cc32)c1C [sunitinib] + Cn1cc(/C=C2\C(=O)Nc3cccnc32)c2ccccc21 [GW441756] (first compound 2 µM, partner dose 2 µM) | 41.7 | 83.5 | 50.2 | 45.5 | 77.5 | 59.7 | 63.3 | 95.8 | 59.6 | – |
| Cn1cnc2c(F)c(Nc3ccc(Br)cc3Cl)c(C(=O)NOCCO)cc21 [selumetinib] + Cn1cc(/C=C2\C(=O)Nc3cccnc32)c2ccccc21 [GW441756] (first compound 0.075 µM, partner dose 2 µM) | 36.6 | 51.3 | 49.5 | 59.5 | 69.8 | 45.1 | 65 | 75 | 42.2 | – |
| CCN(CC)CCNC(=O)c1c(C)[nH]c(/C=C2\C(=O)Nc3ccc(F)cc32)c1C [sunitinib] + CCc1ccc(CCOc2ccc(CC3SC(=O)NC3=O)cc2)nc1 [pioglitazone] (first compound 2 µM, partner dose 10 µM) | 71.8 | 96.5 | 70.3 | 49.2 | 89.5 | 91.4 | 72 | 122 | 69.6 | – |
| CCN(CC)CCNC(=O)c1c(C)[nH]c(/C=C2\C(=O)Nc3ccc(F)cc32)c1C [sunitinib] + CCCCCCCCc1ccc(CCC(N)(CO)CO)cc1 [fingolimod] (first compound 2 µM, partner dose 10 µM) | – | 0.3 | 9.06 | 18.5 | 87.8 | 3.6 | 7.64 | 71.3 | 30.7 | 5.78 |
| CCN(CC)CCNC(=O)c1c(C)[nH]c(/C=C2\C(=O)Nc3ccc(F)cc32)c1C [sunitinib] + O=C1NC(=O)/C(=C/c2ccc(-c3ccc(F)cc3O)o2)S1 [AS252424] (first compound 2 µM, partner dose 5 µM) | 68.6 | 72.2 | 67.5 | 52.3 | 96.6 | 107 | 79.5 | 106 | 53.6 | – |
| C[C@]1(O)C[C@@H](c2nc(-c3ccc4ccc(-c5ccccc5)nc4c3)c3c(N)nccn32)C1 + CC(C)CCN1c2nc(Nc3cc(F)c(O)c(F)c3)ncc2N(C)C(=O)C1C [BID1870] (first compound 2 µM, partner dose 1 µM) | 58.7 | 62.4 | 67.1 | 55.6 | 72.4 | 70.6 | 85.6 | 87 | 46.7 | – |
| CCN(CC)CCNC(=O)c1c(C)[nH]c(/C=C2\C(=O)Nc3ccc(F)cc32)c1C [sunitinib] + COc1ccc2c(c1)CCC1C2CCC2(C)C(NCCCCCCN3C(=O)C=CC3=O)CCC12 [U73122] (first compound 2 µM, partner dose 2 µM) | 57.2 | 82.3 | 34.9 | 29.1 | 75.7 | 48.1 | 55.9 | 84.8 | 57.6 | – |
| CCN(CC)CCNC(=O)c1c(C)[nH]c(/C=C2\C(=O)Nc3ccc(F)cc32)c1C [sunitinib] + O=c1cc(-c2cccc3c2Sc2ccccc2S3)oc(N2CCOCC2)c1 [KU55933] (first compound 2 µM, partner dose 5 µM) | 48.5 | 49.7 | 62 | 38.3 | 89.1 | 46.2 | 50.1 | 85.3 | 43.4 | – |
